Experimental data published in the supplement of paper PMC8183993.
Values joined by “and” are separate entries in the source; they are usually repeats but may differ in a detail not shown here. Identical values can stand only once. Counter-ions that a name gives are not always drawn. ± gives the standard deviation of the averaged measurements. Whole data set: some 3,100 compounds, median “mean cytoplasmic OPP incorporation (global translation) relative to DMSO” near 100, cut for the lowest 2% near 56. This is one part of the list. Peptide text beside a SMILES is read from it. * marks the point of attachment. Cbz = O=C(OCc1ccccc1)*; CH2F = FC*

Tested on: U2OS
Assay: mean cytoplasmic OPP incorporation (global translation) relative to DMSO (% of DMSO); higher = more protein synthesis
Conditions: 10 µM; 24 h
Description: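 Primary image-based screen in U2OS cells: compounds at 10 uM for 24 h, then a 1 h o-propargyl-puromycin (OPP) pulse, click labelling, and high-throughput microscopy. Mean cytoplasmic OPP intensity and nuclei count were normalised to DMSO wells within each plate (DMSO = 100) and averaged over triplicate plates.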

SMILES	mean cytoplasmic OPP incorporation
CN(C)/N=N/c1[nH]cnc1C(N)=O [Dacarbazine]	87
CC[N+](C)(C)Cc1ccccc1Br [Bretylium tosylate]	104
CCCCCCCCc1ccc(-c2ccc(C(=O)O)cc2)cc1	105
C[N+](C)(C)CCCCCC[N+](C)(C)C [Hexamethonium dibromide dihydrate]	87.5
CC1C(=O)OC2C(O)C34C5CC(C(C)(C)C)C36C(OC(=O)C6O)OC4(C(=O)O5)C12O (centres undefined) [Ginkgolide B]	94.3
O=c1[nH]ccc2c(S(=O)(=O)N3CCCNCC3)cccc12 [HA 1100 hydrochloride]	99.3
CN1C(C)(C)CCCC1(C)C [Pempidine tartrate]	109
Cn1cc(-c2ccc3ncc(Cc4ccc5ncccc5c4)n3n2)cn1	123 ± 8.6
CC1(C)Oc2ccc(C#N)cc2[C@@H](N2CCCC2=O)[C@@H]1O [Levcromakalim]	99.4
Cc1cc(NC(=O)Nc2ccc(N(C)C)cc2)c2cc(F)cc(F)c2n1	102
Cc1onc(-c2c(Cl)cccc2Cl)c1C(=O)N[C@@H]1C(=O)N2[C@@H]1SC(C)(C)[C@@H]2C(=O)O [Dicloxacillin sodium salt hydrate]	93.9
CC(C)(C(=O)O)c1ccc(C(O)CCCN2CCC(C(O)(c3ccccc3)c3ccccc3)CC2)cc1 (centres undefined) [Fexofenadine HCl]	90.6
CC(C)(C(=O)O)c1ccc(C(O)CCCN2CCC(C(O)(c3ccccc3)c3ccccc3)CC2)cc1 (centres undefined) [Fexofenadine hydrochloride]	99.5
O=c1cc(N2CCOCC2)oc2c(-c3cccc4c3sc3ccccc34)cccc12	121
NC(N)=S [Thiourea]	102
COc1cccc(-c2cc(NCc3ccc4c(c3)OCO4)nc(N)n2)c1	92.3
COc1ccc([C@@H]2CC(=O)c3c(O)cc(O[C@@H]4O[C@H](CO[C@@H]5O[C@@H](C)[C@H](O)[C@@H](O)[C@H]5O)[C@@H](O)[C@H](O)[C@H]4O)cc3O2)cc1O [Hesperidin]	101 ± 2.1
O=C(O)COc1ccc(OCCNC[C@H](O)COc2ccccc2)cc1 [ICI 215,001 hydrochloride]	100
O=C[C@H](O)[C@@H](O)[C@H](O)CO [Xylose]	93.2
Cc1cc(C(C)(C)C)c(O)c(C)c1CC1=NCCN1 [Oxymetazoline hydrochloride]	95.4 ± 7.8
CN(C)CCCN1c2ccccc2Sc2ccccc21 [Promazine hydrochloride]	103
NS(=O)(=O)c1cc(C(=O)O)cc(N2CCCC2)c1Oc1ccccc1 [Piretanide]	107
C[N+]1(C)[C@@H]2C[C@@H](OC(=O)C(O)(c3cccs3)c3cccs3)C[C@H]1[C@@H]1O[C@@H]12 [Tiotropium Bromide hydrate]	107
CC(C(=O)O)c1ccc2c(c1)Cc1cccnc1O2 (centres undefined) [Pranoprofen]	102
CSc1ccc2c(c1)C(N1CCN(C)CC1)Cc1ccccc1S2 (centres undefined) [Methiothepin maleate]	113 ± 2.2
COC(=O)C[C@H](NC(=O)[C@H](C)NC(=O)[C@@H](NC(=O)OCc1ccccc1)C(C)C)C(=O)CF (Cbz-Val-Ala-Asp(OMe)-CH2F)	94.9
O=C(/C=C/c1ccc2ccccc2n1)c1ccncc1	26.3

SMILES	mean cytoplasmic OPP incorporation
CC(=O)Nc1ccccc1 [Acetanilide (Antifebrin)]	102
COC(c1ccccc1)(c1ccccc1)[C@H](Oc1nc(C)cc(C)n1)C(=O)O [Ambrisentan]	101.2 ± 0.59
COC(=O)C1=C(C)NC(C)=C(C(=O)OCCN2CCN(C(c3ccccc3)c3ccccc3)CC2)C1c1cccc([N+](=O)[O-])c1 (centres undefined) [Manidipine (Manyper)]	108
Cc1c(C)c2c(c(C)c1O)CCC(C)(COc1ccc(CC3SC(=O)NC3=O)cc1)O2 (centres undefined) [Troglitazone]	103 ± 3.5
Cc1ccc(O)c(N=Nc2ccccc2)n1	90.4
C[N+]1(C)[C@@H]2CC[C@H]1C[C@@H](OC(=O)C(O)c1ccccc1)C2 (some centres undefined) [Homatropine Methylbromide]	103
CC(C)=CC[C@@H](O)C1=CC(=O)c2c(O)ccc(O)c2C1=O [Shikonin]	94.2
NC(=O)c1cc[n+](CC2=C(C(=O)[O-])N3C(=O)[C@@H](NC(=O)[C@@H](c4ccccc4)S(=O)(=O)O)[C@H]3SC2)cc1 [Cefsulodin sodium salt]	102
CCCCCC#CCC#CCC#CCC#CCCCC(=O)O [5,8,11,14-Eicosatetraynoic acid]	97.4
C[C@]12CC[C@H](O)CC1=CC[C@@H]1[C@@H]2CC[C@]2(C)C(n3cnc4ccccc43)=CC[C@@H]12 [Galeterone (TOK-001)]	121
CC1=C(/C=C/C(C)=C/C=C/C(C)=C/C(=O)O)C(C)(C)CCC1 [Retinoic acid, all trans]	96
CC1=C(/C=C/C(C)=C/C=C/C(C)=C/C(=O)O)C(C)(C)CCC1 [Retinoic Acid]	103
CC1=C(/C=C/C(C)=C/C=C/C(C)=C/C(=O)O)C(C)(C)CCC1 [Retinoic acid]	104 ± 4.3
O=C(Nc1nc2cccc(-c3ccc(CN4CCS(=O)(=O)CC4)cc3)n2n1)C1CC1 [Filgotinib£¬GLPG0643)]	96.6
N=C(N)NS(=O)(=O)c1ccc(N)cc1 [Sulfaguanidine]	103
CC(=O)Oc1ccccc1C(=O)O [Acetylsalicylic acid]	104
CCCCNC(=O)[C@@H]1Cc2ccccc2N1C(=O)[C@@H](N)CC [Butabindide oxalate]	99.6
CNS(=O)(=O)CCc1ccc2[nH]cc(C3CCN(C)CC3)c2c1 [Naratriptan HCl]	101
O=C(O)c1ccc(-c2c[nH]c3ncc(-c4ccccc4)cc23)cc1C1CCCC1	104 and 110
Cc1ncc(CO)c(CO)c1O [Pyridoxine hydrochloride]	88.9
CN1CCc2cc(Cl)c(O)cc2[C@@H](c2ccccc2)C1	96.2
CC1(C)[C@H](C(=O)O)N2C(=O)C[C@H]2S1(=O)=O [Sulbactam sodium (Unasyn)]	105
CC1(C)[C@H](C(=O)O)N2C(=O)C[C@H]2S1(=O)=O [Sulbactam]	97.4
N[C@@H](CCC(=O)N[C@@H](CS)C(=O)NCC(=O)O)C(=O)O [Glutathione]	102
c1ccc(-c2[nH]ncc2-c2ccnc3ccccc23)nc1	93.2
CCC1(c2ccccc2)NC(=O)N(C)C1=O (centres undefined) [Mephenytoin]	101
NC(=O)CNCCC(c1ccccc1)c1ccccc1 [N20C hydrochloride]	98.5

SMILES	mean cytoplasmic OPP incorporation
CCc1c(C)[nH]c2c1C(=O)C(CN1CCOCC1)CC2 (centres undefined) [Molindone hydrochloride]	97
C#Cc1cccc(Nc2ncnc3cc4c(cc23)OCCOCCOCCO4)c1 [Icotinib]	106 ± 3.9
C=CC(=O)Nc1cc(Nc2nccc(-c3cn(C)c4ccccc34)n2)c(OC)cc1N(C)CCN(C)C	103
C=C1C[C@@]2(O)O[C@@]3(C[C@H]2C(C)C)[C@@H](C)CC[C@@H]13 [Curcumol]	101
O=C(O)COCCN1CCN(C(c2ccccc2)c2ccc(Cl)cc2)CC1 (centres undefined) [Cetirizine dihydrochloride]	99.9 ± 2.8
Cn1cc(-c2cnn3c(N)c(Br)c([C@@H]4CCCNC4)nc23)cn1	72.9
N[C@@H]1CONC1=O [D-cycloserine]	104
CCCSc1nc(N[C@@H]2C[C@H]2c2ccc(F)c(F)c2)c2nnn([C@@H]3C[C@H](OCCO)[C@@H](O)[C@H]3O)c2n1 [Ticagrelor]	99.7
C=CC(=O)Nc1cccc(Nc2nc(Nc3ccc(Oc4ccnc(C(=O)NC)c4)cc3)ncc2F)c1	100
CCCOC(=O)c1cc(O)c(O)c(O)c1 [N-Propyl gallate]	123
CC(C)c1cc(-c2n[nH]c(=O)n2-c2ccc3c(ccn3C)c2)c(O)cc1O [Ganetespib (STA-9090)]	70.9
O=C(O)C1CCCN(CCC=C(c2ccccc2)c2ccccc2)C1 (centres undefined)	96.8
CC(=O)O[C@]1(C(C)=O)CC[C@H]2[C@@H]3C=C(Cl)C4=CC(=O)[C@@H]5C[C@@H]5[C@]4(C)[C@H]3CC[C@@]21C [Cyproterone acetate]	113.6 ± 1.1
COc1cccc(CCc2ccccc2OCC[C@@H]2C[C@@H](O)CN2C)c1	113
Clc1ccc(CO/N=C(\Cn2ccnc2)c2ccc(Cl)cc2Cl)c(Cl)c1 [Oxiconazole Nitrate]	99.2
COc1ccc(-c2ccc3ncc4c(c3c2)n(-c2ccc(N3CCNCC3)c(C(F)(F)F)c2)c(=O)n4C)cn1	33.4 ± 16
C#C[C@]1(OC(C)=O)CC[C@H]2[C@@H]3CCC4=CC(=NO)CC[C@@H]4[C@H]3CC[C@@]21CC (mixture of isomers) [Norgestimate]	106
Clc1ccc(Cn2c(CN3CCCC3)nc3ccccc32)cc1 [Clemizole hydrochloride]	111
COc1cc2nc(N(C)CCCNC(=O)C3CCCO3)nc(N)c2cc1OC (centres undefined) [Alfuzosin hydrochloride]	106
CC1(C)CC(=O)c2c(C(F)(F)F)nn(-c3ccc(C(N)=O)c(N[C@H]4CC[C@H](O)CC4)c3)c2C1	95.7
O=C(O)/C=C/c1ccc(O)c(O)c1 [Caffeic acid]	108
CCCCc1nc2cc(/C=C/C(=O)NO)ccc2n1CCN(CC)CC [SB939 (Pracinostat)]	57.8
N=C(N)Nc1ccc(C(=O)Oc2ccc3cc(C(=N)N)ccc3c2)cc1 [Nafamostat mesylate]	102
NC(N)=Nc1ccc(Cl)cc1 [4-Chlorophenylguanidine hydrochloride]	94.4
O=C(O)Cc1nn(Cc2ccc(Br)cc2F)c(=O)c2ccccc12 [Statil]	98.2
